In US20090018083A1:

Target: GAL4-BTB^BCL6 (GAL4 DNA binding domain fused to the wild-type BCL6 BTB domain) (human)
Assay: cell-based or functional assay

- enhancement of repression in reporter assays: 2 to 3 fold
Substance: full-length SMRT
